# The list shows a part of the results. Viral Rep nickase domains cut single-stranded DNA in vitro at 3 µM enzyme and 37 °C for 1 h; the strands have 90 letters, of which the middle is given. Uncut reads are compared with the no-enzyme pool on a log2 scale; strong cutting gives strongly negative numbers. There is no active / inactive call. Because reads are shares of a total, they shift together; uncut strands gain when others are lost, and binding without cutting may add a little.
# Tested on: T1, Rep nickase domain of tomato golden mosaic virus
# T1 sequence (protein, residues 1-124, tag omitted): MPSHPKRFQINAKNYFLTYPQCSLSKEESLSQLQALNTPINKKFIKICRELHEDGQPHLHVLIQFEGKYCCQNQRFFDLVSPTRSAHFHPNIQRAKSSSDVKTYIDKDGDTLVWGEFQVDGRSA
# Experiment: uncleaved DNA left, log2 of reads against the no-enzyme library (log2 ratio); higher = less cleavage (more negative = more Rep cleavage of the k-mer); sequences stand for … in CTCGTCCG…ACCGGAGA
# Method: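 A pool of 90-nt single-stranded DNAs with seven random bases just before the constant AC of the nick site (name = the seven bases) was cut by 3 µM recombinant His6-SUMO-tagged Rep nickase domain (300 nM DNA, 50 mM HEPES pH 8.0, 50 mM NaCl, 1 mM MnCl2, 1 h, 37 °C, three replicates). Uncut DNA was amplified and sequenced.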
row,Sequence,uncleaved DNA left (log2)
1,CAGTAAC,0.0906
2,GGGACTC,-0.0652
3,AGAACCG,-0.02
4,GGGCAGT,-0.0534
5,AAGCAAG,0.0248
6,TGGGTTA,-0.0359
7,TGAAGAT,0.0447
8,TACTTGT,-0.0725
9,ATATGAC,0.0457
10,ATCCTTG,-0.17
11,TCCTCGT,-0.0421
12,GGCCGCC,-0.0454
13,CTTAGGC,0.00609
14,TACCAGG,-0.00898
15,ACCTCCA,0.0597
16,TCCGCCA,-0.0277
17,TTAAGGC,0.0855
18,CGATCTC,-0.109
19,AGCCCAC,0.0514
20,GGTCATG,-0.00523

row,Sequence,uncleaved DNA left (log2)
1,TCCAACC,0.0156
2,ATGAGTA,0.0239
3,GGTGACA,-0.113
4,GAATCTC,-0.815
5,TGACGCC,-0.00436
6,CCTCTAC,0.0946
7,TTCAGGG,0.127
8,TTACACA,-0.0797
9,CTCAATG,-0.121
10,GTCACCA,0.0291
11,GATAGCA,-0.0709
12,ACCCTAG,0.0272
13,ATACAAC,0.058
14,TTCAGAG,0.142
15,ACATGGG,0.0717
16,TTTGTTT,-0.0187
17,AACATCT,0.126
18,CTAGCTC,-0.0527
19,CGCTGTG,-0.0832
20,GTAAGCC,-0.058

# Reference: the supplement of paper PMC7826260
